The list shows a part of the results.

For the test, the system named is PfHDP1 homeodomain (GST-tagged). In words: gcPBM binding intensity (ln(normalized median fluorescence intensity)); higher = stronger DNA binding. The essentials:
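The binding buffer was 1× PBS containing 1% milk, 0.2 mg/ml BSA, 0.5% salmon testes DNA and 0.03% Triton X-100. In it, GST-tagged P. falciparum DNA-binding domains expressed in E. coli were applied for 1 h to an Agilent 4 × 180k array of primer-extended double-stranded 36-bp intergenic genomic probes plus negative controls. Binding intensity, read with Alexa488 anti-GST antibody and a 488 nm scan, is the highest Masliner-normalised natural-log median intensity across replicate spots of either probe orientation.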
For “TATATATATAAAAGTTGTACAGTGTTTTATATAGTT [XGTACX_site7085]”, the “gcPBM binding intensity (ln)” value turned out to be 7.33.

“AATTAGCTATTTAAAAATATATAAAATTTATATATA [CACACA_negctrl_site390]”: the “gcPBM binding intensity (ln)” value is 6.33.

“ATCATATTGAATATTTAACACACATTTCGCTTAATT [CACACA_site8652]”: the “gcPBM binding intensity (ln)” value was 6.74.

As for “GAAATAGAGAGACACACACACATATATTTATGTATT [CACACA_site7794]”, the “gcPBM binding intensity (ln)” value came to 6.24.

“TTCTTTATTATATGCACACGTACATATAATATATAT [CACACA_site2018]”: the “gcPBM binding intensity (ln)” value worked out at 9.96.

Turning to “ATTTATATTAATGGATAAATAAATGTGTACTTGATA [CACACA_negctrl_site24]”, the “gcPBM binding intensity (ln)” value stood at 6.42.

For “AAAAAAAAAAAACACACACACATATATATATATATA [CACACA_site732]”, the “gcPBM binding intensity (ln)” value amounted to 9.27.

As to “ATCAACAAAACATACACACACATATAGATTTATATA [CACACA_site7415]”, the “gcPBM binding intensity (ln)” value was 6.75.

As for “TTATGTAAAATCGATACATGCATTAATCATTTTATA [TGCATGCA_site493]”, the “gcPBM binding intensity (ln)” value came out at 5.96.

Regarding “TATGATATGTTATACACACACGTATTTATGAATTGA [CACACA_site7591]”, the “gcPBM binding intensity (ln)” value was 6.92.

“TCATATTTCCATAGGAGTACATAAAAAAAATAATAT [XGTACX_site7601]”: the “gcPBM binding intensity (ln)” value came out at 6.79.

With “AACTATAAAAAAAATACACACATTACCAAAAATATA [CACACA_site1529]”, the “gcPBM binding intensity (ln)” value turned out to be 6.76.

In the case of “AATCTGATTTGTATATGTACACAAATATTTTTATTT [XGTACX_site5295]”, the “gcPBM binding intensity (ln)” value was 6.51.

On to “TATAAAAAAATATATATATATATATATATATAAATA [TGCATGCA_negctrl_site22]”, for which the “gcPBM binding intensity (ln)” value amounted to 6.98.

On to “TTTAATAATTATTAAAGTACAAAATAAATATTGAAT [XGTACX_site7538]”, for which the “gcPBM binding intensity (ln)” value came to 6.7.

In the case of “GATAAAACGTTATGCACACGTACGTGGGTATTTATA [CACACA_site4954]”, the “gcPBM binding intensity (ln)” value was found to be 10.3.

Regarding “AAGAAAAAAAAAAAAAATATATATATAAGAACATAT [TGCATGCA_negctrl_site131]”, the “gcPBM binding intensity (ln)” value was 6.53.

For “TTTTCAATTAATAATACACACATGTATATATCATTA [CACACA_site7539]”, the “gcPBM binding intensity (ln)” value turned out to be 6.56.

Turning to “TGATGTTGTAACAAAAGTACACACACATTTCTATAA [XGTACX_site5837]”, the “gcPBM binding intensity (ln)” value was 6.33.

Turning to “TAATGCATTATTAGAATACACACCATACGCATATTT [CACACA_site289]”, the “gcPBM binding intensity (ln)” value was 6.68.

With “TTTTTCTTTTGATGTTGTACATATATATTATATATA [XGTACX_site2754]”, the “gcPBM binding intensity (ln)” value turned out to be 7.02.

Turning to “TGCTATATAATATGAGCACACATAAGATTTGGTGTT [CACACA_site8148]”, the “gcPBM binding intensity (ln)” value came out at 6.77.

Take “ATATTTTTATTTAAACGTACATACACGTTGAAAAGA [XGTACX_site4567]”: the “gcPBM binding intensity (ln)” value stood at 6.47.

Consider “AACTGTACAATTTTTGTGCACAATAATTATTAATAT [GTGCAC_site9462]”, for which the “gcPBM binding intensity (ln)” value amounted to 11.

These data come from the supplement of paper PMC11417369.
